# Assay results from the supplement of paper PMC3334620.
# The full ranking holds about 33,000 sequences; the median of “E-score (-0.5 to 0.5)” is about -0.035, and the highest 2% start at about 0.35. The list shows a part of the results.
# Biological target: T1, Pdr3 (UniProt P33200)
# T1 sequence: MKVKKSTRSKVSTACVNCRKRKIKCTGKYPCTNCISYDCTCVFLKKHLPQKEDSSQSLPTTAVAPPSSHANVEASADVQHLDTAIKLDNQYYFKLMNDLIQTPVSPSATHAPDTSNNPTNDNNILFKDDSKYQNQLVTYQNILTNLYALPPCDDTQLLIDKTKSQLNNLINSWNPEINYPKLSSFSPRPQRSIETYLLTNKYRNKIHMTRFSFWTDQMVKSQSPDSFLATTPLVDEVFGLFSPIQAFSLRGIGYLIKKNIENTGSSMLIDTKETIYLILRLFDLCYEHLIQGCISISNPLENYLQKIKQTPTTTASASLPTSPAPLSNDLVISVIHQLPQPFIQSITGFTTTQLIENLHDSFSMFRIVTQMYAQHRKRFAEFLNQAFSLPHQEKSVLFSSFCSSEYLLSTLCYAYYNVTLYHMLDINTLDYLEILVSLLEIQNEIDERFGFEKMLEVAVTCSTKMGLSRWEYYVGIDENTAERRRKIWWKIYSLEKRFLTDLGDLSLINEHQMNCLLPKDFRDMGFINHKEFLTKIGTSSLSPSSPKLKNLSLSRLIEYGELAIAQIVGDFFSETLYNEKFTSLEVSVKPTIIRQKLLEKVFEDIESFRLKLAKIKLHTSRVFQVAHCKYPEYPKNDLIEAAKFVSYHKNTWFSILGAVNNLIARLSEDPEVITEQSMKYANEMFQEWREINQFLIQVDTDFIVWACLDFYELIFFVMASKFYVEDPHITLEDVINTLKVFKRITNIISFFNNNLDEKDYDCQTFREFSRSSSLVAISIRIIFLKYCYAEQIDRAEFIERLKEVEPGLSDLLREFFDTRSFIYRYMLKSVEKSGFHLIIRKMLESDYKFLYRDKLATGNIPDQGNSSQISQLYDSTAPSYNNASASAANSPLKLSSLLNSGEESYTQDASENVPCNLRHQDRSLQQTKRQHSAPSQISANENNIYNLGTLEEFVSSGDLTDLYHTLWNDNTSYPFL
# Assay: PBM E-score (8-mer binding enrichment) (E-score (-0.5 to 0.5)); higher = stronger / more preferred TF binding; most listed sequences are background and not binding sites
# Conditions: protein concentration: 200 nM; construct: GST-full length
# Protocol: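 Universal 'all 10-mer' protein binding microarrays (Agilent AMADID 015681) probed with GST-tagged S. cerevisiae TFs (full-length or DBD) made by in vitro transcription/translation (PURExpress), about 100-200 nM. Bound TF was detected with fluorescent anti-GST. Each ungapped 8-mer (which stands for itself and its reverse complement) is scored by the PBM enrichment score (E-score), a modified Wilcoxon-Mann-Whitney statistic from -0.5 to +0.5, computed with the Universal PBM Analysis Suite. Scale: above 0.35 generally sequence-specific binding.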
row,Sequence,PBM E-score
1,ACTCATGC,-0.166
2,ACACTCAC,0.0722
3,CCGAGTCG,0.134
4,AAGTGGTG,0.0797
5,CAGCCAAA,0.00884
6,CGCTTTCC,0.218
7,AGACGCAC,-0.0855
8,CCTCGCCA,-0.179
9,GGCGGCTA,0.0717
10,AGATCCTA,-0.277
11,ACCCACGC,-0.0677
12,CACCTTGA,-0.106
13,TTCGAGAA,-0.192
14,CCACGTGG,-0.375
15,AACACGGG,0.116
16,GGGTCATA,-0.0563
17,ACAAATCC,0.0765
18,CCGTAAGC,-0.0323
19,GTGGTCGA,-0.172
20,ATAGACTA,-0.333
21,CCCACTAC,-0.0207
22,CATCTACA,-0.125
23,AAGCAAGT,-0.159
24,ATCCAAGC,-0.212
25,GACTGGCC,0.0864

row,Sequence,PBM E-score
1,CCACGTGC,-0.171
2,GCATCAAA,0.0575
3,AAGACTAC,-0.188
4,AACCAACT,0.00667
5,GTAGAGAC,-0.309
6,CACTACCA,0.0149
7,AAGTGTGC,0.1
8,GCTGTTAC,-0.11
9,ACGCATCC,0.00027
10,CCTTTTGA,-0.184
11,CAGCGTGG,-0.263
12,ATTTGGTC,0.203
13,ACATAACC,0.0878
14,TCGATTAA,0.137
15,AGTGCGCC,0.0425
16,CGGCTATA,0.179
17,AACCCCTT,-0.0379
18,CTCCAAAA,-0.184
19,CAAGCACC,-0.252
20,CTTACCTA,-0.0586
21,GACTCGAC,-0.0844
22,GCCGAGAA,0.226
23,AGTTTCTA,-0.212
24,CTTTCAGC,-0.0831
25,GGTCTAAC,-0.031

row,Sequence,PBM E-score
1,ACCACACG,-0.103
2,GCCTGGTA,-0.285
3,CATGGAGG,-0.121
4,CTAGCGCC,-0.116
5,GTAGCCAC,-0.345
6,GATGATGA,0.101
7,AAGATTTG,0.00494
8,CAACGTCC,-0.012
9,AAGATTGT,-0.134
10,ATTACTCC,0.0865
11,AGGGGAAA,-0.0896
12,AACTGCGC,-0.146
13,CCGTGACG,0.161
14,AATTGGCG,-0.0254
15,CCTCGTTA,-0.167
16,GCGGCTTA,-0.0127
17,GTCAAATA,-0.111
18,CTTATATA,0.0525
19,CGCACTTC,-0.0221
20,AAATTACA,-0.0116
21,GAGTAGGA,-0.0876
22,CAACTAGA,-0.0997
23,AAGATATC,0.0952
24,CTATTTGC,-0.094
25,CTCGCATC,-0.0271

row,Sequence,PBM E-score
1,AGCATGAA,-0.111
2,ATGACCTC,-0.21
3,AATGGTCT,-0.025
4,ACTCAGCG,0.0198
5,GGGCAAGA,0.141
6,CACGGCTC,0.064
7,GCGTACAA,-0.158
8,ACTATGCG,0.151
9,CTTCAGAC,-0.177
10,CTATGTTA,0.148
11,CCGTTTAC,0.185
12,CATGTACA,-0.248
13,GATTAGAA,-0.0925
14,CCGGGTCA,0.349
15,CAGAAAGA,-0.14
16,CACATTTA,-0.347
17,TGAAATCA,0.0512
18,GCATACTA,0.0452
19,CCTACCAG,-0.23
20,CCTAGCTA,-0.218
21,GAACCCCA,0.211
22,CGACTAAC,0.0493
23,ATACAACC,0.0891
24,ACCGATGA,-0.0178
25,CCCATTCA,0.179

row,Sequence,PBM E-score
1,ACTTGAAA,-0.0654
2,AGGTTGTG,-0.253
3,ATGGCCGC,0.0766
4,CACGTAGA,-0.234
5,CGTTTGGC,-0.0728
6,CGTTCATA,-0.175
7,CAACCTGA,-0.295
8,CACGATAA,0.00396
9,CATGCCGC,0.345
10,GGTCGGCA,-0.00943
11,ACATCTTC,0.17
12,AAGAGGCT,-0.285
13,GATCGCGC,0.117
14,TCCCTAGA,-0.166
15,ATTTATCG,0.0282
16,CGAGTGCC,0.0449
17,AACAAGGA,0.0135
18,GGAGCTCC,0.285
19,CCTGGGCG,0.0119
20,ACCGTTAA,0.0941
21,GAGTTTGA,0.0662
22,ACGGAAAC,0.452
23,ACCTGGCC,0.162
24,CATATACG,-0.0904
25,AATTAGAC,-0.243

row,Sequence,PBM E-score
1,ATGACTAG,-0.276
2,AGGAGCGA,-0.199
3,ATTGGTCA,-0.163
4,ATCCGGCA,0.255
5,CGACGGGA,0.311
6,AGTAGTAA,-0.0722
7,AGATATCG,-0.0672
8,AGGGACCG,-0.128
9,CACTGTGA,-0.132
10,CTCTTGAA,-0.192
11,TAGTGGCA,-0.0992
12,AAAGGCAG,-0.108
13,CAACGATC,-0.0405
14,TCAACGGA,0.359
15,ATCATCGA,0.0114
16,TACGCAAA,-0.328
17,ATAGAACG,0.147
18,AGTCGAGA,-0.099
19,GCAAGAGC,-0.12
20,CACATCCG,0.291
21,GAATCCCC,0.14
22,GCCAGTCA,-0.0896
23,ACTCAGTC,-0.196
24,CGATGACG,-0.16
25,CCGATCTC,0.248

row,Sequence,PBM E-score
1,CGGTACAG,0.0702
2,CGGTTAAG,-0.044
3,AAGGACCT,-0.0617
4,AGTGAATC,-0.0967
5,CTCTCGAC,-0.244
6,GCGATTCA,-0.154
7,AGCTGATC,0.149
8,AGCATAAT,0.0662
9,GCCCTCTA,-0.229
10,AAAACATG,-0.0544
11,CAGTTACA,-0.0561
12,ACGCTCAG,-0.294
13,GCAGGGCA,-0.0439
14,CAACCATC,-0.0344
15,GGTTCGAC,-0.0247
16,ACTACGCA,-0.236
17,CAGAGAGC,-0.116
18,AACGGGCC,0.107
19,TGACACAA,0.00452
20,AATGTGTC,0.0699
21,CCATCCCA,-0.0225
22,CGTTCTCA,-0.119
